{"source": "patent US20250177546A1", "about": "“ROR1-TARGETED BINDING MOLECULE AND USE THEREOF” (SANYOU BIOPHARMACEUTICALS CO., LTD., priority 2022, published 2025)", "molecules": {"B1": {"name": "B31-H3L3-MMAE (conjugate)", "heavy": "EVQLVESGGGLVQPGGSLRLSCAASGFTFSRYAMSWVRQAPGKGLEWVASISRGGSTYYADSVKGRFTISRDNSKNTLYLQMNSLRAEDTAVYYCASYFGNYDAMDYWGQGTTVTVSS[human IgG1 constant region not listed]", "light": "DIQMTQSPSSLSASVGDRVTITCRASQDINNYVSWFQQKPGKAPKSLIYRANRLVSGVPSRFSGSGSGTDFTFTISSLQPEDFATYYCLQFDEFPYTFGGGTKLEIKRTVAAPSVFIFPPSDEQLKSGTASVVCLLNNFYPREAKVQWKVDNALQSGNSQESVTEQDSKDSTYSLSSTLTLSKADYEKHKVYACEVTHQGLSSPVTKSFNRGEC"}}, "key": {"Jeko-1 tumor": {"tested_on": "Jeko-1 tumor", "experiment": "ADC efficacy in mouse model bearing Jeko-1 tumor", "format": "in vivo", "conditions": "10 mpk"}, "MDA-MB-468 cells": {"tested_on": "MDA-MB-468 cells", "experiment": "ADC tumor cell killing, CCK8 assay, MDA-MB-468", "format": "cell-based, human", "conditions": "CCK8, 72 h"}, "HT-29 cells": {"tested_on": "HT-29 cells", "experiment": "ADC tumor cell killing, MTS assay, HT-29", "format": "cell-based, human", "conditions": "96 h, relative to control 99961.1-MMAE"}, "Jeko-1 cells": {"tested_on": "Jeko-1 cells", "experiment": "ADC tumor cell killing, CCK8 assay, Jeko-1", "format": "cell-based, human", "conditions": "CCK8, 72 h"}, "HT-29 tumor": {"tested_on": "HT-29 tumor", "experiment": "ADC efficacy in mouse model bearing HT-29 tumor", "format": "in vivo"}, "MDA-MB-231 tumor": {"tested_on": "MDA-MB-231 tumor", "experiment": "ADC efficacy in mouse model bearing MDA-MB-231 tumor", "format": "in vivo", "conditions": "for Tumor growth inhibition (TGI): tail vein once a week, 3 administrations"}}}
{"molecule": "B1", "values": [{"measurement": "Tumor growth inhibition (TGI)", "setting": "Jeko-1 tumor; QW*3, day 17", "value": 3.63, "unit": "%"}, {"measurement": "Tumor growth inhibition (TGI)", "setting": "Jeko-1 tumor; QW*3, day 20", "value": 26.96, "unit": "%"}, {"measurement": "Tumor growth inhibition (TGI)", "setting": "Jeko-1 tumor; QW*3, day 22", "value": 52.36, "unit": "%"}, {"measurement": "Tumor growth inhibition (TGI)", "setting": "Jeko-1 tumor; QW*3, day 24", "value": 61.53, "unit": "%"}, {"measurement": "Tumor growth inhibition (TGI)", "setting": "Jeko-1 tumor; QW*3, day 27", "value": 83.08, "unit": "%"}, {"measurement": "Tumor growth inhibition (TGI)", "setting": "Jeko-1 tumor; QW*3, day 29", "value": 89.03, "unit": "%"}, {"measurement": "Tumor growth inhibition (TGI)", "setting": "Jeko-1 tumor; QW*3, day 31", "value": 94.30, "unit": "%"}, {"measurement": "Tumor growth inhibition (TGI)", "setting": "Jeko-1 tumor; QW*3, day 34", "value": 96.02, "unit": "%"}, {"measurement": "Tumor growth inhibition (TGI)", "setting": "Jeko-1 tumor; QW*3, day 36", "value": 95.68, "unit": "%"}, {"measurement": "Tumor growth inhibition (TGI)", "setting": "Jeko-1 tumor; QW*3, day 38", "value": 96.28, "unit": "%"}, {"measurement": "Tumor growth inhibition (TGI)", "setting": "Jeko-1 tumor; Single dose, day 17", "value": 6.54, "unit": "%"}, {"measurement": "Tumor growth inhibition (TGI)", "setting": "Jeko-1 tumor; Single dose, day 20", "value": 28.99, "unit": "%"}, {"measurement": "Tumor growth inhibition (TGI)", "setting": "Jeko-1 tumor; Single dose, day 22", "value": 45.06, "unit": "%"}, {"measurement": "Tumor growth inhibition (TGI)", "setting": "Jeko-1 tumor; Single dose, day 24", "value": 59.45, "unit": "%"}, {"measurement": "Tumor growth inhibition (TGI)", "setting": "Jeko-1 tumor; Single dose, day 27", "value": 74.96, "unit": "%"}, {"measurement": "Tumor growth inhibition (TGI)", "setting": "Jeko-1 tumor; Single dose, day 29", "value": 86.03, "unit": "%"}, {"measurement": "Tumor growth inhibition (TGI)", "setting": "Jeko-1 tumor; Single dose, day 31", "value": 90.48, "unit": "%"}, {"measurement": "Tumor growth inhibition (TGI)", "setting": "Jeko-1 tumor; Single dose, day 34", "value": 89.15, "unit": "%"}, {"measurement": "Tumor growth inhibition (TGI)", "setting": "Jeko-1 tumor; Single dose, day 36", "value": 86.44, "unit": "%"}, {"measurement": "Tumor growth inhibition (TGI)", "setting": "Jeko-1 tumor; Single dose, day 38", "value": 84.62, "unit": "%"}, {"measurement": "Tumor growth inhibition (TGI)", "setting": "Jeko-1 tumor; Single dose, day 41", "value": 79.24, "unit": "%"}, {"measurement": "EC50", "setting": "MDA-MB-468 cells", "value": 15.2, "unit": "nM"}, {"measurement": "killing effect on HT-29 tumor cells", "setting": "HT-29 cells", "value": "slightly superior to that of the control 99961.1-MMAE"}, {"measurement": "EC50", "setting": "Jeko-1 cells", "value": 38.2, "unit": "nM"}, {"measurement": "Tumor growth inhibition (TGI)", "setting": "HT-29 tumor; 0.4 mpk, tail vein BIW*4, day 23", "value": "−2.50", "unit": "%"}, {"measurement": "Tumor growth inhibition (TGI)", "setting": "HT-29 tumor; 0.4 mpk, tail vein BIW*4, day 27", "value": 8.22, "unit": "%"}, {"measurement": "Tumor growth inhibition (TGI)", "setting": "HT-29 tumor; 0.4 mpk, tail vein BIW*4, day 30", "value": "−0.94", "unit": "%"}, {"measurement": "Tumor growth inhibition (TGI)", "setting": "HT-29 tumor; 0.4 mpk, tail vein BIW*4, day 34", "value": "−5.59", "unit": "%"}, {"measurement": "Tumor growth inhibition (TGI)", "setting": "HT-29 tumor; 0.4 mpk, tail vein BIW*4, day 37", "value": 4.75, "unit": "%"}, {"measurement": "Tumor growth inhibition (TGI)", "setting": "HT-29 tumor; 0.4 mpk, tail vein BIW*4, day 41", "value": 9.43, "unit": "%"}, {"measurement": "Tumor growth inhibition (TGI)", "setting": "HT-29 tumor; 0.4 mpk, tail vein BIW*4, day 44", "value": 12.34, "unit": "%"}, {"measurement": "Tumor growth inhibition (TGI)", "setting": "HT-29 tumor; 0.4 mpk, tail vein BIW*4, day 48", "value": 17.92, "unit": "%"}, {"measurement": "Tumor growth inhibition (TGI)", "setting": "HT-29 tumor; 0.4 mpk, tail vein BIW*4, day 51", "value": 16.05, "unit": "%"}, {"measurement": "Tumor growth inhibition (TGI)", "setting": "HT-29 tumor; 2 mpk, tail vein BIW*4, day 23", "value": "−7.50", "unit": "%"}, {"measurement": "Tumor growth inhibition (TGI)", "setting": "HT-29 tumor; 2 mpk, tail vein BIW*4, day 27", "value": 8.48, "unit": "%"}, {"measurement": "Tumor growth inhibition (TGI)", "setting": "HT-29 tumor; 2 mpk, tail vein BIW*4, day 30", "value": 6.86, "unit": "%"}, {"measurement": "Tumor growth inhibition (TGI)", "setting": "HT-29 tumor; 2 mpk, tail vein BIW*4, day 34", "value": 0.99, "unit": "%"}, {"measurement": "Tumor growth inhibition (TGI)", "setting": "HT-29 tumor; 2 mpk, tail vein BIW*4, day 37", "value": 4.88, "unit": "%"}, {"measurement": "Tumor growth inhibition (TGI)", "setting": "HT-29 tumor; 2 mpk, tail vein BIW*4, day 41", "value": 6.70, "unit": "%"}, {"measurement": "Tumor growth inhibition (TGI)", "setting": "HT-29 tumor; 2 mpk, tail vein BIW*4, day 44", "value": 9.97, "unit": "%"}, {"measurement": "Tumor growth inhibition (TGI)", "setting": "HT-29 tumor; 2 mpk, tail vein BIW*4, day 48", "value": 14.09, "unit": "%"}, {"measurement": "Tumor growth inhibition (TGI)", "setting": "HT-29 tumor; 2 mpk, tail vein BIW*4, day 51", "value": 15.37, "unit": "%"}, {"measurement": "Tumor growth inhibition (TGI)", "setting": "HT-29 tumor; 10 mpk, tail vein BIW*4, day 23", "value": "−5.56", "unit": "%"}, {"measurement": "Tumor growth inhibition (TGI)", "setting": "HT-29 tumor; 10 mpk, tail vein BIW*4, day 27", "value": 17.16, "unit": "%"}, {"measurement": "Tumor growth inhibition (TGI)", "setting": "HT-29 tumor; 10 mpk, tail vein BIW*4, day 30", "value": 36.56, "unit": "%"}, {"measurement": "Tumor growth inhibition (TGI)", "setting": "HT-29 tumor; 10 mpk, tail vein BIW*4, day 34", "value": 59.72, "unit": "%"}, {"measurement": "Tumor growth inhibition (TGI)", "setting": "HT-29 tumor; 10 mpk, tail vein BIW*4, day 37", "value": 73.42, "unit": "%"}, {"measurement": "Tumor growth inhibition (TGI)", "setting": "HT-29 tumor; 10 mpk, tail vein BIW*4, day 41", "value": 83.01, "unit": "%"}, {"measurement": "Tumor growth inhibition (TGI)", "setting": "HT-29 tumor; 10 mpk, tail vein BIW*4, day 44", "value": 85.35, "unit": "%"}, {"measurement": "Tumor growth inhibition (TGI)", "setting": "HT-29 tumor; 10 mpk, tail vein BIW*4, day 48", "value": 85.16, "unit": "%"}, {"measurement": "Tumor growth inhibition (TGI)", "setting": "HT-29 tumor; 10 mpk, tail vein BIW*4, day 51", "value": 85.53, "unit": "%"}, {"measurement": "tumor inhibition effect", "setting": "HT-29 tumor; high-dose (10 mpk), BIW*4", "value": "significant tumor inhibition effects"}, {"measurement": "tumor inhibition effect relative to 99961.1-MMAE", "setting": "HT-29 tumor; high-dose (10 mpk), BIW*4", "value": "equivalent to that of 99961.1-MMAE"}, {"measurement": "Tumor growth inhibition (TGI)", "setting": "MDA-MB-231 tumor; 5 mpk, day 21", "value": 24.01, "unit": "%"}, {"measurement": "Tumor growth inhibition (TGI)", "setting": "MDA-MB-231 tumor; 5 mpk, day 25", "value": 50.35, "unit": "%"}, {"measurement": "Tumor growth inhibition (TGI)", "setting": "MDA-MB-231 tumor; 5 mpk, day 28", "value": 67.87, "unit": "%"}, {"measurement": "Tumor growth inhibition (TGI)", "setting": "MDA-MB-231 tumor; 5 mpk, day 32", "value": 79.37, "unit": "%"}, {"measurement": "Tumor growth inhibition (TGI)", "setting": "MDA-MB-231 tumor; 5 mpk, day 35", "value": 85.76, "unit": "%"}, {"measurement": "Tumor growth inhibition (TGI)", "setting": "MDA-MB-231 tumor; 5 mpk, day 39", "value": 89.98, "unit": "%"}, {"measurement": "Tumor growth inhibition (TGI)", "setting": "MDA-MB-231 tumor; 5 mpk, day 42", "value": 90.53, "unit": "%"}, {"measurement": "Tumor growth inhibition (TGI)", "setting": "MDA-MB-231 tumor; 5 mpk, day 46", "value": 88.81, "unit": "%"}, {"measurement": "Tumor growth inhibition (TGI)", "setting": "MDA-MB-231 tumor; 5 mpk, day 49", "value": 86.62, "unit": "%"}, {"measurement": "Tumor growth inhibition (TGI)", "setting": "MDA-MB-231 tumor; 5 mpk, day 53", "value": 58.88, "unit": "%"}, {"measurement": "Tumor growth inhibition (TGI)", "setting": "MDA-MB-231 tumor; 5 mpk, day 56", "value": 79.79, "unit": "%"}, {"measurement": "Tumor growth inhibition (TGI)", "setting": "MDA-MB-231 tumor; 10 mpk, day 21", "value": 29.51, "unit": "%"}, {"measurement": "Tumor growth inhibition (TGI)", "setting": "MDA-MB-231 tumor; 10 mpk, day 25", "value": 59.33, "unit": "%"}, {"measurement": "Tumor growth inhibition (TGI)", "setting": "MDA-MB-231 tumor; 10 mpk, day 28", "value": 74.57, "unit": "%"}, {"measurement": "Tumor growth inhibition (TGI)", "setting": "MDA-MB-231 tumor; 10 mpk, day 32", "value": 87.43, "unit": "%"}, {"measurement": "Tumor growth inhibition (TGI)", "setting": "MDA-MB-231 tumor; 10 mpk, day 35", "value": 91.32, "unit": "%"}, {"measurement": "Tumor growth inhibition (TGI)", "setting": "MDA-MB-231 tumor; 10 mpk, day 39", "value": 94.55, "unit": "%"}, {"measurement": "Tumor growth inhibition (TGI)", "setting": "MDA-MB-231 tumor; 10 mpk, day 42", "value": 95.56, "unit": "%"}, {"measurement": "Tumor growth inhibition (TGI)", "setting": "MDA-MB-231 tumor; 10 mpk, day 46", "value": 95.87, "unit": "%"}, {"measurement": "Tumor growth inhibition (TGI)", "setting": "MDA-MB-231 tumor; 10 mpk, day 49", "value": 96.03, "unit": "%"}, {"measurement": "Tumor growth inhibition (TGI)", "setting": "MDA-MB-231 tumor; 10 mpk, day 53", "value": 91.85, "unit": "%"}, {"measurement": "Tumor growth inhibition (TGI)", "setting": "MDA-MB-231 tumor; 10 mpk, day 56", "value": 96.60, "unit": "%"}, {"measurement": "anti-tumor effect relative to positive control ADC", "setting": "MDA-MB-231 tumor; low-dose condition (5 mpk)", "value": "superior to that of the positive control ADC"}]}
